Among the data in paper PMC10726135 are binding signal (log2 normalized intensity) values, retold here.

The other results are listed elsewhere or left out. At the low end of the ranking the order means little. Measured with an extract: partners may take part in the binding.

The assay has as its target T1, HNF4alpha8 (COS-7 nuclear extract) (UniProt P41235-5).
T1 sequence: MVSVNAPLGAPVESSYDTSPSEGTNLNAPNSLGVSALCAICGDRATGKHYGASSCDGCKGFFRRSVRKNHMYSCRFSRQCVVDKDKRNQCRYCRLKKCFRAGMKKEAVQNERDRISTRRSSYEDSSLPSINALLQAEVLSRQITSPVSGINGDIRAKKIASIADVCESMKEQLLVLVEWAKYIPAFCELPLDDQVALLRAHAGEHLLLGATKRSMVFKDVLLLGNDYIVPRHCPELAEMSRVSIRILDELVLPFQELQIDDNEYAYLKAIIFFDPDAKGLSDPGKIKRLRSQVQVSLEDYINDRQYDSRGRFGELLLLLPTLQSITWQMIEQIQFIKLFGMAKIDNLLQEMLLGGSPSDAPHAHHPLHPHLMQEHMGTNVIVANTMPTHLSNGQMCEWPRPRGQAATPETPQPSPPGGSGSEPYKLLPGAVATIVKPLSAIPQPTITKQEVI
In words: protein-binding microarray. Particulars: COS-7 nuclear extract on double-stranded Agilent 4x180k PBM; binding buffer, salt, pH and temperature not given; high values mean tight binding; double strand, one strand shown; sequences stand for … in …GCCTAGGGAGATTAGAGTATCGGTCGA
As to GCATATCTAGAGTCTGACTACTTCTCACCA, the binding signal (log2 normalized intensity) is -1.19.
The figure for AAACTCTGAAAGCACTAAGTTACCTCATCT is -1.25.
Then AGTTCAGTCTTTATTGGTACGTTCCAATAT, with 1.8; and TTGGGTGAGTGTTAGAGCACCCTCTGGAGG, with -1.37.
On to AAGTGCATACTCAAAGAATTTAACACCAGA, for which the binding signal (log2 normalized intensity) is -1.3.
The figure for CTTTGACCTTACCAGCCCACTCTTAGCAGA is -1.38; for GAGCTGTGATTGCGCCACTGTACTCCTGTC it is 0.907.
The figure for CAGTCCCTGTACACGGTTCTTGACCTGTGA is 4.12.
Then AGCGGCAGCGCCTCCCGGTCACTACAACAA, with -1.41.
For the sequence GGCCTGCAAGCTCCTGGTTGGGGCCTCCCT, the binding signal (log2 normalized intensity) is -1.36.
The figure for GGGCTTAATCTTTCCTGCCTGCCGGCTCTG is -1.28; for TCCCACCGTGTGTGCACTTTAAATTAATCT it is 0.44; for TGTTTGCACTGAGGAATGGAAGGACCTTGG it is 2.07.
Then TTTGCCCTTTGAGCTTCTGTCTTGGACTGC, with 3.91.
Then ATATGAAAACAAAGGAAACCAAACATTGAA, with -1.31; and CAAATAAAGTTTGAGGAGAGTCAAAGGTTA, with 4.23.
In the case of CCACACAAACCCAGTTTGCATTTTCATGGA, the binding signal (log2 normalized intensity) was found to be 0.254.
Then TTGCAGACTGGTTCTTGGTCAGCTCCTGGG, with -1.09; and CAAGAAACCTTTCCCTCTCTCCTGGTTTGG, with 1.23; and AGTTTTTCCCCTTGGTGGATTCCGTGGTAA, with 1.43.
The figure for TGCGCATGTTCCCACGAAACCCTAAACCTG is -1.19.
The figure for GCAGGCCTGGGGGCAAAGTCAGGTACTGGT is 1.16; for TTCCCTCCTGTGAACTCGCGCCCCAACGGA it is -1.25.
ACCTTTAGCACCGTAAGAGAGTATTTCCCA: the binding signal (log2 normalized intensity) was -0.964.
Regarding CACTTCGCATTTCCAAAAGAAGAATGTGGC, the binding signal (log2 normalized intensity) is -0.294.
Then GAAGAGTGAGGTCACAGTATTCATTCCCCT, with 1.55; and TTCTTATCTTTCTCAAGAGCAGAATCTACA, with 0.247; and TGACGCTTTAAGTAGGCACTATTATCCCCC, with 3.62.
Then TGCTCTTATTGATTGCCTTTCATGTACTGT, with 2.2.
The figure for TAATGAATAAGCACGTTAGAGAAAAAGCCC is -1.39.
Consider TCCTGCCCCCTGGAGGAGTGAGGGATGTTC, for which the binding signal (log2 normalized intensity) is 1.96.
Then GTCAGGACAAGGCTCTGGTGGGGAATGCTA, with -1.31; and GGAGACCACTGGTGTAAGCTCTGGAGTCCA, with 1.64.
The figure for CCAGGATCAAATACAGAATCAATGCCTGAT is -1.34; for GTGGCCCCGAGATAAGGATTCCTGGAATGT it is 0.921.
The figure for CAGCCTTTGGACTTTGAACTGCAACATCAG is 8.89.
In the case of GGAGAATTTCACAAAGGGCAAAGTCCCCTT, the binding signal (log2 normalized intensity) is 7.
The figure for TTACGGGCAGAGCTGGGGTGCCTGATAATG is -1.25; for CAGGCACATTCCAGGACCTTTGCTCATGTC it is 3.58.
Then ACCAAGGAGGTGCTGACAGGCCCTCTGATA, with -1.27; and TGTCCCTCCTGACCTTTGGACTTGATAGAG, with 9.7; and ACAGCCACATGCTAACACACCTGGCTATTC, with -1.4.
The figure for TGTCATGACCTTCGCTCTTGATGGGTTTGC is 3.64.
Regarding CCGTCTCTCACCAAATCCCTGCCCACATCC, the binding signal (log2 normalized intensity) worked out at 2.23.
Then GGTGTGAATATTTAAGATTCCAGCTCTCGG, with -1.27.
Then GACCCTTGCACTCATACTTGAAGACATTCC, with 3.49.
Then TGAAGCTTGCAACAAAGGGGTTTCTAAGAA, with -1.19; and ATGTTTGGGAGCCTTGCACACTCGCCTGGC, with -1.42.
As for CATCTTTATCATGTGGTATTAACATGTAAA, the binding signal (log2 normalized intensity) is 1.4.
The figure for ACTCCACATATTGTAGATAATACTGTGTCA is 0.935; for TTCAGTCGGCTCTCAGCGGAACTTTCCTCT it is -1.4.
The figure for TTGGGTGGAGGGGAGGTTATCTTGGGGCTG is -1.15; for TTAACAGATGAGGACATTTCAGCAAAGTTC it is 0.0075.
As for CAGAGGTCAAGGCTGCAGCGAGCCACTGTA, the binding signal (log2 normalized intensity) is -1.41.
Then CCCCCATTAGAGGCACACTCTATTATGTAA, with 1.59; and ATGCCCTTATCTCATACCTTGCATGCACAA, with 0.04.
The figure for AGTTTGAAGCTTAGAGAGAGAAATTGCTTA is -1.35; for TTGACTTTTTGTGGGGGCAGATGTTTCTTT it is 1.95.
The figure for TTGAATCCTTATCTGTAGAAGGCAAAGCTT is -1.04.
Regarding CATGTGGGTCAACAGACAAATGAAAGAGCT, the binding signal (log2 normalized intensity) is -1.07.
Take GGTTGCCCAGGGAGAGCTGGACTTTCATCT: the binding signal (log2 normalized intensity) was 5.54.
Then TGCTAACAATGTGATTTATGAAGGGGGGTG, with -1.3; and GAAGGCCCTGAACTCCCAGCCTCCAAGATG, with -1.25; and TCCTCTCAAAGTCCACCCGGCCAGCAGATG, with 3.12.
The figure for CTCCTCCCCTTGAGACTTTAATCTCTCCTC is 2.01; for TCTCTGTAAACTGGCCAGAAGGTCAGAGAT it is 2.36.
Then TACTAGCCATTTCGGCACCTTCTACACAGC, with -0.851.
As for TACAGACAGAAGCCAGAGGCAGCAAGGTCA, the binding signal (log2 normalized intensity) was determined as 0.321.
The figure for TGCCCTTTGGCCCCCAGAGCCCCGTGTCTC is 5.63; for ATTCTCTGGAAAAGGTCTGCTGTACATATT it is 1.35.
The figure for GAAGAAGTGTTAAGGACAACCGGTAGCACA is -1.33; for TGGGAAGTCCAAAGTCTGCAGGGTAGGCAG it is 3.24.
